Data published in PMC4336329 (PLoS ONE, 2015).
Out of some 310,000 compounds screened, about 2,200 (0.71%) showed an effect of 50% or more. Effects have a minus sign here. The list shows a part of the results.

The compounds below were run against human ether-à-go-go-related gene (hERG) potassium channel (human, UniProt Q12809) (assay: primary screen, population patch clamp on CHO cells stably expressing hERG).
Sequence of human ether-à-go-go-related gene (hERG) potassium channel (Q12809 whole entry, looked up): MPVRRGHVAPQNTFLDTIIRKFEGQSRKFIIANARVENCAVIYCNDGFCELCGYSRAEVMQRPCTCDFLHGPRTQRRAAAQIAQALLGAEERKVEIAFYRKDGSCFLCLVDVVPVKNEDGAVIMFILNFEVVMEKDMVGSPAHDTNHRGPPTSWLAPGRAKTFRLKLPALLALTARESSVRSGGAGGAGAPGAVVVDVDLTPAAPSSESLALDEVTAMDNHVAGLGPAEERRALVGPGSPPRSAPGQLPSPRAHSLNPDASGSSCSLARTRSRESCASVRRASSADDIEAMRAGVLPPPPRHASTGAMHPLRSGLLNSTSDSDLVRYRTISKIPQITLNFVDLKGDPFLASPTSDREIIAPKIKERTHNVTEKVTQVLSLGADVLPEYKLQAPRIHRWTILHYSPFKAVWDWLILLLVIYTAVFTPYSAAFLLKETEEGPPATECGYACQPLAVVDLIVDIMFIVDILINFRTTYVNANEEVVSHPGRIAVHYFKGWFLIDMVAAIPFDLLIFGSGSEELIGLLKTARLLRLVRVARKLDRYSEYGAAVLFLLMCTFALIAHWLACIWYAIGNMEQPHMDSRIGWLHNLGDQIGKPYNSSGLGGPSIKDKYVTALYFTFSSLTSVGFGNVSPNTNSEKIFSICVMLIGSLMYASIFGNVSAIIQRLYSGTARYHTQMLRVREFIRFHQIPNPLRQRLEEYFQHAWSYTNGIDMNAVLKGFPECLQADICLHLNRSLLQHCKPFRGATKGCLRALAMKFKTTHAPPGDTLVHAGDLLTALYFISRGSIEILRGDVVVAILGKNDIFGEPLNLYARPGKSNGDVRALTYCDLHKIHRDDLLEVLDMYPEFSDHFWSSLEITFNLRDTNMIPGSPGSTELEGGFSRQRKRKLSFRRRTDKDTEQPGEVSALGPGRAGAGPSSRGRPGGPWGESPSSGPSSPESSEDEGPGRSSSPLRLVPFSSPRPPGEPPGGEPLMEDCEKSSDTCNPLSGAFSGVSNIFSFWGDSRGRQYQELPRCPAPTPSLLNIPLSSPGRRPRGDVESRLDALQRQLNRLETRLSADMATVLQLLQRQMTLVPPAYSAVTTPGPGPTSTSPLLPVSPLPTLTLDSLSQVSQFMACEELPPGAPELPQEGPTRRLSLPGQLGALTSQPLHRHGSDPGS

Going from `COc1ccc(C(=O)NCCNc2nc3cc(C)c(C)cc3cc2C)cc1` to `COc1ccc(S(=O)(=O)CCC(=O)NCCc2ccc(C)cc2)cc1`, the “hERG current change (%, negative = inhibition) at 1uM” value rises from 0.766% to 3.09%.

Compared with `Cc1cc(NC(=O)CCC(=O)N(c2ccccc2)C(C(=O)NC(C)(C)C)c2ccccc2Cl)no1` (stereo not drawn), `COCCNC(=O)Cn1cc(C(=O)c2ccccc2F)c2ccccc21` is lower in “hERG current change (%, negative = inhibition) at 1uM” value: 13.7% for the first, 10.9% for the second.

Going from `O=C(Nc1ccc(Br)cc1)C1CCCC1` to `O=C(Nc1cccc(F)c1)C1CCCN(S(=O)(=O)c2cnc[nH]2)C1` (stereo not drawn), the “hERG current change (%, negative = inhibition) at 1uM” value rises from 9.58% to 21.3%.

Going from `CCCCn1c(O)c(C(C)=NCC2CCCO2)c(=O)[nH]c1=O` (stereo not drawn) to `Cc1nn(Cc2noc(C(=O)NCC3CCCO3)n2)c(C)c1Br` (stereo not drawn), the “hERG current change (%, negative = inhibition) at 1uM” value rises from -5.11% to 11.5%.

First: OCCN1CCN(c2ncnc3scc(-c4ccc(F)cc4)c23)CC1
Second: Cc1ccc(OCC(=O)N2CCN(Cc3ccc4c(c3)OCO4)CC2)cc1.O=C(O)C(=O)O
The “hERG current change (%, negative = inhibition) at 1uM” value of the first is lower: -0.973% for the first, 3.35% for the second.

First: CC1CCN(C(=O)c2ccc(S(=O)(=O)Cc3cc(F)ccc3F)c([N+](=O)[O-])c2)CC1
Second: CC1CCN(S(=O)(=O)c2ccc(NC(=O)CSc3ncccc3C(=O)O)cc2)CC1
The “hERG current change (%, negative = inhibition) at 1uM” value of the first is lower: 2.83% for the first, 12.7% for the second.

First: CC1CC(C)CN(CC(C)(C)NS(=O)(=O)c2ccc(Cl)cc2)C1 (stereo not drawn)
Second: COc1cccc(CN(C)C(=O)C2CCN(S(=O)(=O)c3ccc(C)cc3)CC2)c1OC
The “hERG current change (%, negative = inhibition) at 1uM” value of the first is higher: 4.49% for the first, -0.0427% for the second.

First: CCCc1c(C)c2c(C)[nH]nc2oc1=O
Second: Cc1ccc(N(C(C)C(=O)O)S(=O)(=O)c2c(C)n[nH]c2C)cc1 (stereo not drawn)
The “hERG current change (%, negative = inhibition) at 1uM” value of the first is lower: 2.18% for the first, 16.6% for the second.

Going from `c1cc(C(c2nnnn2C2CCCCC2)N2CCN3CCCC3C2)ccn1` (stereo not drawn) to `Cc1cccc(C)c1NC(=O)NC1(C(=O)N2CCCCC2)CCCCC1`, the “hERG current change (%, negative = inhibition) at 1uM” value rises from 7.76% to 12.5%.

Going from `CC(Oc1cc2oc(=O)c3c(c2cc1Cl)CCCC3)C(=O)NCc1ccccn1` (stereo not drawn) to `CC(=O)Oc1cc2oc(=O)cc(C)c2cc1Cl`, the “hERG current change (%, negative = inhibition) at 1uM” value rises from 4.18% to 12.7%.

First: Cc1ccc(OCC(=O)Nc2ccc(S(=O)(=O)N3CCOCC3)cc2)c(Br)c1
Second: CC(NC(=O)COc1ccc(S(=O)(=O)N2CCCC2)cc1)c1ccccc1 (stereo not drawn)
The “hERG current change (%, negative = inhibition) at 1uM” value of the first is lower: 9.65% for the first, 13.7% for the second.

First: COc1ccc(C(=O)C[n+]2ccc(-c3nnc4n3CCC4)cc2)cc1.[Br-]
Second: COc1ccc(-c2noc3c2-c2nc(-c4ccc(C)cc4)sc2CC3)cc1
The “hERG current change (%, negative = inhibition) at 1uM” value of the first is lower: 13.3% for the first, 19% for the second.

Going from `O=C(N/N=C/c1cccc(OC(=O)c2cccc(Br)c2)c1)c1cccnc1` to `CN(Cc1cccnc1)C(=O)CNC(=O)c1ccc(Cl)cc1Cl`, the “hERG current change (%, negative = inhibition) at 1uM” value falls from 7.28% to 3.55%.

Going from `CN1CCC(=O)N([C@H](CSc2ccc(Br)cc2)c2ccccc2)CC1` to `CN1CCN(P(=O)(c2ccccc2)c2nc3ccccc3s2)CC1` (stereo not drawn), the “hERG current change (%, negative = inhibition) at 1uM” value rises from -89.8% to 4.85%.

First: CCCOc1ccccc1C(=O)N(Cc1ccc(C)o1)C1CCS(=O)(=O)C1 (stereo not drawn)
Second: Cc1ccc(NC(=S)N(CCCN2CCCC(C)C2)Cc2ccco2)cc1C (stereo not drawn)
The “hERG current change (%, negative = inhibition) at 1uM” value of the first is higher: -4.38% for the first, -36.5% for the second.

Going from `COCCN(C(=O)COC(=O)CSc1ccc(Cl)cc1)c1c(N)n(Cc2ccccc2)c(=O)[nH]c1=O` to `Cc1[nH]n(-c2ccccc2)c(=O)c1C(C[N+](=O)[O-])c1ccc(Cl)cc1` (stereo not drawn), the “hERG current change (%, negative = inhibition) at 1uM” value falls from 9.23% to 3.17%.

Going from `COc1ccc(NC(=O)c2c(F)c(F)c(F)c(F)c2F)cc1Cl` to `COc1cc2c(cc1OC)C(c1cccc(Cl)c1Cl)CC(=O)N2` (stereo not drawn), the “hERG current change (%, negative = inhibition) at 1uM” value rises from 6% to 12%.

Compared with `O=C(OCc1nnc(-c2ccccc2)o1)c1ccc([N+](=O)[O-])s1`, `CCCCn1nnc(NC(=O)c2ccc(-c3cccc([N+](=O)[O-])c3)o2)n1` is lower in “hERG current change (%, negative = inhibition) at 1uM” value: 11.9% for the first, -27% for the second.

First: C#CCN(CC=C)C(=O)CCc1nnc(COc2ccccc2)o1
Second: CCOc1ccc(-c2cnc(SCC(N)=O)nc2N)cc1
The “hERG current change (%, negative = inhibition) at 1uM” value of the first is higher: 14.3% for the first, 11.1% for the second.

Compared with `COc1ccc(Cn2c(=O)[nH]c3cc(C(=O)N4CCN(c5ccc(OC)cc5)CC4)ccc3c2=O)cc1`, `CC(=O)Cn1c(N2CCC(Cc3ccccc3)CC2)nc2c1c(=O)[nH]c(=O)n2C` is higher in “hERG current change (%, negative = inhibition) at 1uM” value: 13% for the first, 17% for the second.

Going from `COc1ccc(C(NC(C)=O)c2cc(Cl)c3cccnc3c2O)cc1` (stereo not drawn) to `COc1cc(/C=C2/C(=O)NN(c3cccc(F)c3)C2=O)ccc1OC(=O)c1ccco1`, the “hERG current change (%, negative = inhibition) at 1uM” value falls from 12.3% to 11.7%.

Compared with `CC1=C(C#N)C(=O)OC(C)(C)C1`, `CC1(C)Cc2nc(Cl)c(C#N)cc2CO1` is lower in “hERG current change (%, negative = inhibition) at 1uM” value: 12.7% for the first, 3.41% for the second.

Going from `CC(=O)c1c(C)[nH]c(C(=O)CSc2nnc3ccccn23)c1C` to `Cc1nn(-c2ccccn2)c2c1-c1nc(N)ncc1CC2`, the “hERG current change (%, negative = inhibition) at 1uM” value rises from -0.286% to 9.53%.

First: CCCc1cc(=O)[nH]c(SC(C)C(=O)Nc2ccc3c(c2)OCCO3)n1 (stereo not drawn)
Second: CC(C)CNC(=S)N1CCN(Cc2ccc3c(c2)OCO3)CC1.O=C(O)C(=O)O
The “hERG current change (%, negative = inhibition) at 1uM” value of the first is higher: 17.3% for the first, 6.67% for the second.

First: CN(C)c1ncnc(N(C)C)c1[N+](=O)[O-]
Second: CCOC(=O)c1sc2nccc(OC)c2c1N=CN(C)C
The “hERG current change (%, negative = inhibition) at 1uM” value of the first is higher: 12% for the first, 9.95% for the second.

First: CC(Cc1cccs1)NCc1ccc(Cl)cc1 (stereo not drawn)
Second: Cc1cccc(S(=O)(=O)NCCc2ccccc2)c1
The “hERG current change (%, negative = inhibition) at 1uM” value of the first is lower: 2.3% for the first, 14.8% for the second.

Going from `CCCC(=O)NC(=S)Nc1ccc(CN2CCOCC2)cc1` to `CCCN1CCc2c(sc(NC(=O)c3ccc(S(=O)(=O)N(C)c4ccccc4)cc3)c2C(N)=O)C1`, the “hERG current change (%, negative = inhibition) at 1uM” value falls from 16.5% to 14.5%.

Compared with `N=c1cc(C2(O)CCCCC2)n2c(nc3ccccc32)s1`, `COc1cc2c(cc1OC)C(Nn1cnnc1)=NC1(CCCC1)C2` is higher in “hERG current change (%, negative = inhibition) at 1uM” value: -5.51% for the first, 11.1% for the second.

With `O=S(=O)(NC1Cc2ccccc2C1)c1ccccc1` the “hERG current change (%, negative = inhibition) at 1uM” value was 11.9%.
